Results taken from the supplement of paper PMC4967469.
Lines with a small IC50 respond at low doses; a fit beyond the top or the lowest dose is shown as a bound at that dose. For AUC the same curve is integrated over the 256-fold range of doses and scaled to a fraction: 1 means no effect, lower means more sensitive. For part of these data: The top dose, if marked as inferred, comes from the curve model; the source does not state it.

Tests used:
Experiment in all cases: Viability of human cancer cell lines after 72 h of drug (GDSC screen)
BIX02189 = compound: CN(C)Cc1cccc(N=C(c2ccccc2)c2c(O)[nH]c3cc(C(=O)N(C)C)ccc23)c1 [BIX02189]; details: top dose 20 µM; top dose inferred
Protocol: (§1)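 Human cancer cell lines in 384-well plates, medium with 10% serum, drug for 72 h over a 256-fold dose range (nine 2-fold or five 4-fold steps up to the top dose). Adherent lines were fixed and stained with the nucleic acid dye Syto60, suspension lines read with resazurin; signal relative to control wells, capped at 0 and 100%. One two-parameter sigmoid per drug and line, fitted in a mixed model over all curves with the slope shared within a line.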

UNC1215 = compound: O=C(c1ccc(C(=O)N2CCC(N3CCCC3)CC2)c(Nc2ccccc2)c1)N1CCC(N2CCCC2)CC1 [UNC1215]; details: top dose 1 µM; top dose inferred
Protocol: as §1

CCT018159 = compound: CCc1cc(-c2n[nH]c(C)c2-c2ccc3c(c2)OCCO3)c(O)cc1O [CCT018159]; details: top dose 10 µM; top dose inferred
Protocol: as §1

Doxorubicin = compound: COc1cccc2c1C(=O)c1c(O)c3c(c(O)c1C2=O)C[C@@](O)(C(=O)CO)C[C@@H]3O[C@H]1C[C@H](N)[C@H](O)[C@H](C)O1 [Doxorubicin]; details: top dose 1.024 µM
Protocol: as §1

TG101348 = compound: Cc1cnc(Nc2ccc(OCCN3CCCC3)cc2)nc1Nc1cccc(S(=O)(=O)NC(C)(C)C)c1 [TG101348]; details: top dose 10.24 µM
Protocol: as §1

VX-11e = compound: Cc1cnc(Nc2ccc(F)cc2Cl)nc1-c1c[nH]c(C(=O)N[C@H](CO)c2cccc(Cl)c2)c1 [VX-11e]; details: top dose 5.12 µM; top dose inferred
Protocol: as §1

Dimethyloxalylglycine = compound: COC(=O)CNC(=O)C(=O)OC [Dimethyloxalylglycine]; details: top dose 4000 µM; top dose inferred
Protocol: as §1

17-AAG = compound: C=CCNC1=C2C[C@@H](C)C[C@H](OC)[C@H](O)[C@@H](C)/C=C(\C)[C@H](OC(N)=O)[C@@H](OC)/C=C\C=C(/C)C(=O)NC(=CC1=O)C2=O [17-AAG]; details: top dose 1 µM
Protocol: as §1

Vismodegib = compound: CS(=O)(=O)c1ccc(C(=O)Nc2ccc(Cl)c(-c3ccccn3)c2)c(Cl)c1 [Vismodegib]; details: top dose 10 µM; top dose inferred
Protocol: as §1

OSI-027 = compound: COc1cccc2cc(-c3nc([C@H]4CC[C@H](C(=O)O)CC4)n4ncnc(N)c34)[nH]c12 [OSI-027]; details: top dose 20 µM
Protocol: as §1

| Cell Line | AUC (BIX02189) | IC50 (BIX02189) [µM] | AUC (UNC1215) | IC50 (UNC1215) [µM] | AUC (CCT018159) | IC50 (CCT018159) [µM] | AUC (Doxorubicin) | IC50 (Doxorubicin) [µM] | AUC (TG101348) | IC50 (TG101348) [µM] | AUC (VX-11e) | IC50 (VX-11e) [µM] | AUC (Dimethyloxalylglycine) | IC50 (Dimethyloxalylglycine) [µM] | AUC (17-AAG) | IC50 (17-AAG) [µM] | AUC (Vismodegib) | IC50 (Vismodegib) [µM] | AUC (OSI-027) | IC50 (OSI-027) [µM] |
| --- | --- | --- | --- | --- | --- | --- | --- | --- | --- | --- | --- | --- | --- | --- | --- | --- | --- | --- | --- | --- |
| KMOE-2 (acute myeloid leukaemia, suspension) | 0.938 | > 20 | 0.984 | > 1 | 0.91 | > 10 | 0.789 | 0.401 | 0.731 | 2.67 | 0.648 | 0.78 | 0.435 | 169 | 0.966 | > 1 | 0.985 | > 10 | 0.252 | 0.267 |
| COLO-679 (melanoma, adherent) | 0.982 | > 20 | 0.983 | > 1 | 0.938 | > 10 | 0.308 | 0.0172 | 0.936 | > 10.2 | 0.895 | > 5.12 | 0.464 | 198 | 0.596 | 0.119 | 0.983 | > 10 | 0.757 | 7.64 |
| TE-6 (oesophagus, adherent) | 0.96 | > 20 | 0.983 | > 1 | 0.92 | > 10 | 0.792 | 0.552 | 0.886 | > 10.2 | 0.927 | > 5.12 | 0.718 | 1170 | 0.694 | 0.242 | 0.986 | > 10 | 0.865 | > 20 |
| U-698-M (B-cell leukaemia, suspension) | 0.761 | 7.13 | 0.982 | > 1 | 0.838 | 6.78 | 0.623 | – | 0.932 | > 10.2 | 0.922 | > 5.12 | 0.256 | 50 | 0.93 | > 1 | 0.952 | > 10 | 0.805 | 10.1 |
| L-1236 (Hodgkin lymphoma, suspension) | 0.955 | > 20 | 0.987 | > 1 | 0.902 | 9.46 | 0.878 | 0.761 | 0.674 | 1.8 | 0.992 | > 5.12 | 0.803 | 1630 | 0.745 | 0.274 | 0.992 | > 10 | 0.404 | 0.714 |
| NCI-H2023 (lung adenocarcinoma, adherent) | 0.972 | > 20 | 0.977 | > 1 | 0.837 | 9.22 | 0.733 | 0.355 | 0.966 | > 10.2 | 0.973 | > 5.12 | 0.648 | 717 | 0.624 | 0.15 | 0.902 | > 10 | 0.909 | > 20 |
| SW756 (cervix, adherent) | 0.984 | > 20 | 0.983 | > 1 | 0.888 | > 10 | 0.733 | 0.339 | 0.985 | > 10.2 | 0.978 | > 5.12 | 0.402 | 127 | 0.764 | 0.43 | 0.981 | > 10 | 0.909 | > 20 |
| Saos-2 (osteosarcoma, adherent) | 0.981 | > 20 | 0.978 | > 1 | 0.928 | > 10 | 0.686 | 0.268 | 0.962 | > 10.2 | 0.981 | > 5.12 | 0.475 | 208 | 0.833 | > 1 | 0.964 | > 10 | 0.947 | > 20 |
| EW-3 (Ewing sarcoma, adherent) | 0.86 | > 20 | 0.934 | > 1 | 0.97 | > 10 | 0.75 | 0.378 | 0.697 | 2.49 | 0.97 | > 5.12 | 0.773 | 1780 | 0.954 | > 1 | 0.962 | > 10 | 0.425 | 0.756 |
| DK-MG (glioma, adherent) | 0.913 | > 20 | 0.975 | > 1 | 0.95 | > 10 | 0.97 | > 1.02 | 0.374 | 0.243 | 0.921 | > 5.12 | 0.631 | 688 | 0.708 | 0.328 | 0.975 | > 10 | 0.817 | 19.2 |
| SCC-25 (head and neck, adherent) | 0.957 | > 20 | 0.982 | > 1 | 0.871 | > 10 | 0.626 | 0.15 | 0.872 | > 10.2 | 0.805 | 3.01 | 0.683 | 874 | 0.699 | – | 0.984 | > 10 | 0.441 | 0.842 |
| CESS (acute myeloid leukaemia, suspension) | 0.837 | 10.8 | 0.98 | > 1 | 0.951 | > 10 | 0.418 | 0.0396 | 0.525 | 0.742 | 0.853 | 3.14 | 0.268 | 61.5 | 0.936 | > 1 | 0.988 | > 10 | 0.095 | < 0.0781 |
| A4-Fuk (B-cell lymphoma, suspension) | 0.851 | 16.4 | 0.978 | > 1 | 0.939 | > 10 | 0.644 | 0.164 | 0.891 | > 10.2 | 0.88 | > 5.12 | 0.249 | 45.7 | 0.984 | > 1 | 0.95 | > 10 | 0.881 | > 20 |
